# About 14,000 (4.5%) of roughly 310,000 compounds showed an effect of 50% or more. Effects have a minus sign here. The list shows a part of the results.
# Biological target: human ether-à-go-go-related gene (hERG) potassium channel (human, UniProt Q12809)
# Test: primary screen, population patch clamp on CHO cells stably expressing hERG
# 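Also: peak tail current of the secondary pulse compared with the same well before compound.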
# Chain of human ether-à-go-go-related gene (hERG) potassium channel (Q12809 whole entry, looked up): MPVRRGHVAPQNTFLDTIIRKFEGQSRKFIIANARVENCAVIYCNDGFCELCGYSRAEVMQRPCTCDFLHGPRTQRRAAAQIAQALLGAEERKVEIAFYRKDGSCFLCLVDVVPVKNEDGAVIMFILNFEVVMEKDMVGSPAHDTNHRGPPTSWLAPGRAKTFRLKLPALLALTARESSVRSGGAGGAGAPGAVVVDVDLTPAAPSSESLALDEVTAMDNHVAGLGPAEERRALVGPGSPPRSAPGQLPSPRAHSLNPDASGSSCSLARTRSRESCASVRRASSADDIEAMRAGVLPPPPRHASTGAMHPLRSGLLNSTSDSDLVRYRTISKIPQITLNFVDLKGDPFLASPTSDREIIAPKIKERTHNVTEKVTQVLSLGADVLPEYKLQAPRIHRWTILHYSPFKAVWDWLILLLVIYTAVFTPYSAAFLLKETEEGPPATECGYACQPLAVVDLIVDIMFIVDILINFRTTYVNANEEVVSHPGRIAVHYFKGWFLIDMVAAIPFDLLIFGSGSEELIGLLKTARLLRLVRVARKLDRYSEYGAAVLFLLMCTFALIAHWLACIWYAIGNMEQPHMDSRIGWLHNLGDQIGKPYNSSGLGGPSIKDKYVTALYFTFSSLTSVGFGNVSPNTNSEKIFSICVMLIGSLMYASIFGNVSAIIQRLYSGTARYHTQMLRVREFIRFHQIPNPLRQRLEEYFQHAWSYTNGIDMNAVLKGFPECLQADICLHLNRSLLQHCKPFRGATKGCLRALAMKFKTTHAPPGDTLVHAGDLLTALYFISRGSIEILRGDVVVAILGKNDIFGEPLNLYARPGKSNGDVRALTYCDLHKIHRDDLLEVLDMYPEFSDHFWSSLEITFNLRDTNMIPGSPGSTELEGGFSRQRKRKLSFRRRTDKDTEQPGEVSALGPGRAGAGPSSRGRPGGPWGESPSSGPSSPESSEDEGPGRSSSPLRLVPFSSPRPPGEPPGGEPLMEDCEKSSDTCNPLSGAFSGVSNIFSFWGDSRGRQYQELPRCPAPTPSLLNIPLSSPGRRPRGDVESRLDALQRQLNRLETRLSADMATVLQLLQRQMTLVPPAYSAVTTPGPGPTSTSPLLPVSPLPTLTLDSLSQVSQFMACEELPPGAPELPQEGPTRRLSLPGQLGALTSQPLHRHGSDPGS
row,SMILES,"hERG current change (%, negative = inhibition) at 10uM [%]"
1,NC(=O)c1nsc(C(=O)N(Cc2ccc(F)cc2)C(C(=O)NC2CCCC2)c2ccco2)c1N (centres unmarked),-10.5
2,Cc1nc(NS(=O)(=O)c2ccccc2)sc1C(=O)NNS(=O)(=O)c1ccccc1,13.9
3,O=C(CN1CCN(C(=O)c2ccco2)CC1)Nc1ccc2c(c1)OCO2,-26.6
4,Cc1ccc2c(C(=O)CN3CCC(C(N)=O)CC3)c(C)[nH]c2c1,5.21
5,COC(=O)C1NN=C(C(=O)c2ccc(Cl)cc2)C1c1ccc(OC)cc1 (centres unmarked),-26.3
6,COC(=O)Cc1cnc(NC(=O)CSc2nc(C(C)C)cc(=O)[nH]2)s1,20.8
7,O=C(c1ccccc1F)N1CCN=C1SCc1cccnc1,-1.53
8,COc1ccc([C@@H]2CC=C(C(=O)O)[C@H](c3ccc(Cl)cc3)N2S(=O)(=O)c2ccc(Cl)cc2)cc1,1.6
9,Cn1c2ccc(Cl)cc2c2nc3ccccc3nc21,13.9
10,CCOc1ccc(-c2nnc3ccc(SCc4ccc(C(=O)OC)o4)nn23)cc1,-24.4
11,COc1cc(/C=C/C(=O)O)cc(S(=O)(=O)NCCCC(=O)O)c1OC,21.9
12,C/C(Cc1ccccc1)=N\NC(=O)CNC(=O)/C=C\c1ccccc1,14.2
13,Cc1cc(OC(C)C(=O)NC2CCN(Cc3ccccc3)CC2)c2c(C)cc(=O)oc2c1 (centres unmarked),-15.2
14,O=C(CSc1cn[nH]n1)Nc1ccc(Cl)cc1Cl,6.7
15,O=C(Nc1ccc(NC(=O)c2ccccc2)nc1)c1ccncc1,-2.33
16,Cc1cc(NC(=O)c2ccccc2Cl)ccc1NC(=O)c1ccccc1Cl,9.49
17,Cc1ccc(NC(=O)CN(C)C(=O)CSc2nc3ccccc3c(=O)n2Cc2ccco2)cc1,-71.1
18,Cc1cc(C)nc(N2CCN(c3ncnc4c3cnn4Cc3ccc(Cl)cc3Cl)CC2)n1,21.9
19,COc1cccc(CNS(=O)(=O)c2c(C)nc3sccn3c2=O)c1,-13.6
20,N#CC1CN(Cc2ccccc2)CN(Cc2ccccc2)C1,-0.854
21,Cc1ccc(N2CCN(CC(O)COC3CCCCC3)CC2)cc1 (centres unmarked),-56.1
22,N#CCCn1c(O)c(N=NC(=O)CNC(=O)c2cccs2)c2ccccc21,-22.9
23,N#Cc1cc([N+](=O)[O-])ccc1N1CCCC1,-38

row,SMILES,"hERG current change (%, negative = inhibition) at 10uM [%]"
1,CCN(CC)C(=O)C(=O)c1cccn1-c1ccccc1C#N,-2.5
2,CNC(=O)c1csc(-c2cccs2)n1,4.14
3,CC(=O)NC(C)c1cc(F)c2cccnc2c1O (centres unmarked),-8.75
4,CCOC(=O)C1=C(O)C(=O)N(c2ccccc2)C1c1cccc([N+](=O)[O-])c1 (centres unmarked),-26.7
5,Cc1c(Cl)cnc(NC(=O)COC(=O)C2CC3CCCC(C2)C3=O)c1Cl (centres unmarked),-4.81
6,Cc1ccc(NC(=O)c2cc(S(=O)(=O)N3CCOCC3)cs2)cc1,-8.31
7,COc1ccccc1CNC(=O)COc1ccc(S(=O)(=O)N2CCCC2)cc1,-5.44
8,Cc1cc(-c2n[nH]c(=S)n2/N=C/c2ccc(Cl)c([N+](=O)[O-])c2)n[nH]1,15.1
9,NC(=O)c1cccc(S(=O)(=O)N2CC(c3ccccc3)CC2=O)c1 (centres unmarked),-18.3
10,O=C1CCN(Cc2ccc(O)cc2)CCN1[C@H](CO)c1ccccc1,-6.93
11,COc1ccc2[nH]c(C(O)(Cc3cccnc3)Cc3cccnc3)cc2c1.O,-10
12,CC(=C1C(=O)c2ccccc2C1=O)N1CCN(c2ccc(F)cc2)CC1,-69.8
13,CC(C)(C)c1ccc(-c2nnc(SCC(=O)NC3CCS(=O)(=O)C3)n2N)cc1 (centres unmarked),5.46
14,Nc1ccccc1NC(=O)CCn1c(=S)[nH]c2ccccc2c1=O,6.13
15,N#Cc1ccc(NC(=O)CSc2nc3[nH]c(=O)cc(O)c3s2)cc1,6.44
16,CC(C)CCC(CCNCc1ccccn1)c1ccc2c(c1)OCO2.Cl (centres unmarked),-75.5
17,COc1ccc(CNC(=O)CN(C(=O)c2snc(C(N)=O)c2N)c2ccc(F)cc2)cc1,1.09
18,Cl.OC(CN1CCNCC1)Cn1c2ccccc2c2ccccc21 (centres unmarked),-6.23
19,CCCC[C@@H]1CNCCN1CCc1cc(C(F)(F)F)cc(C(F)(F)F)c1,-10.7
20,Cc1cc(-c2nnc3n2N=C(c2ccccc2)CS3)n[nH]1,-22.7
21,COCCn1nnnc1C(c1cccs1)N1CCN(c2ccccc2)CC1 (centres unmarked),-23.9
22,CCOCCCNC(=O)c1cc2c(=O)n(CC)c3ccccc3c2s1,-22.2
23,O=C(O)c1nn(-c2ccccc2C(F)(F)F)cc1O,-0.483

row,SMILES,"hERG current change (%, negative = inhibition) at 10uM [%]"
1,COc1cc(/C=C2/C(=O)NN(c3ccc(F)cc3)C2=O)cc([N+](=O)[O-])c1O,12.4
2,Cc1ccc(CC(=O)N2CCN(C)CC2)cc1,18.1
3,CN(Cc1ccsc1)C(=O)Cn1cc(Br)ccc1=O,-10.3
4,CCNC(=S)Nc1cc(C(=O)N2CCCC2)ccc1N1CCCC1,-10.3
5,CCOc1ccc(CN2CCC(n3nccc3NC(=O)CCCc3ccccc3)CC2)cc1,-78.2
6,Cc1cc(S(=O)(=O)Nc2ccc(C(=O)NCC3(N4CCCCC4)CCCCC3)cc2)ccc1F,-66.4
7,CC(C)(C)NC(=O)NC(=O)COc1ccccn1,26.5
8,O=C1CN(C(=O)COC(=O)c2ccco2)c2ccccc2N1,5.05
9,COCCNC(=O)Cn1c(=O)n(Cc2ccco2)c(=O)c2ccccc21,-7.77
10,O=S(=O)(c1ccccc1)c1nc(-c2cccs2)oc1NCCCn1ccnc1,-75.1
11,CN(C)n1cnc2ccsc2c1=O,8.3
12,CC(Cc1ccccc1)N/C=C1/CC(=O)NC1=O (centres unmarked),-1.98
13,CCCOc1ccccc1/C=C(\C#N)C(=O)Nc1cccc(C)n1,2.34
14,CCCCNC(=S)Nc1cccc(S(=O)(=O)NC2=NCCC2)c1,8.65
15,CC(C)N1C2OC(C3OC4C(O3)N(C(C)C)S(=O)(=O)N4C(C)C)OC2N(C(C)C)S1(=O)=O (centres unmarked),2.27
16,Cc1ccc(NC(=O)CCN2C(=O)c3ccccc3Sc3ncccc32)cc1,7.02
17,Br.Cc1ccc(Cn2c(=N)n(CC(=O)c3ccc([N+](=O)[O-])cc3)c3ccccc32)cc1,-4.3
18,CC(=O)c1ccc(NC(=O)CSc2nnc(Cn3cnc4ccccc43)o2)cc1,8.36
19,COc1ccc(/C=N/NC(=O)Cn2ccnc2C)cc1OC,3.56
20,O=C1C2C(c3ccccc3)C=CC(c3ccccc3)C2C(=O)N1C1CCCCC1 (centres unmarked),16.1
21,COc1ccc(C2(CNC(=O)/C=C\c3ccco3)CCCC2)cc1OC,-18.4
22,C=C(C)Cn1c(SCC#N)nc2ccccc2c1=O,-2.08
23,O=C(Cn1cnc2ccccc2c1=O)N1CCc2ccccc2C1,1.61

row,SMILES,"hERG current change (%, negative = inhibition) at 10uM [%]"
1,CSc1ccc(C#N)cc1NC(=O)c1ccc(Cl)nc1,-18.3
2,Cc1nn(CC2CC2)c(=O)n1-c1ccccc1,10
3,O=C(c1cccc2c1-c1ccccc1C2)N1CCCCC1,-4.89
4,CC(C)c1nn2c(=O)cc(COc3cccc(NC(=O)c4ccco4)c3)nc2s1,4.36
5,CC(CCCCC(=O)Nc1ccc(C(F)(F)F)cc1)NCCc1cnc[nH]1.O=C(O)/C=C\C(=O)O (centres unmarked),-10.2
6,CC(C)Cc1ccc(C(C)C(=O)N2CCOCC2)cc1 (centres unmarked),-15.7
7,N=C1SCC(=O)N1c1ncc(Cc2ccc(F)cc2)s1,-13.1
8,CC(C)OC(=O)C(C#N)c1nc2ccccc2nc1N1CCCC1 (centres unmarked),7.04
9,O=C1N=C(N2CCCC2)S/C1=C\c1ccccc1,15.2
10,C(=Nc1cccc2c(N=Cc3ccco3)cccc12)c1ccco1,13.3
11,Cc1c(Br)c([N+](=O)[O-])nn1CC(=O)Nc1ccc(C(N)=O)cc1,-2.84
12,CCC(=O)OCC(=O)Nc1ccc(OC)cc1[N+](=O)[O-],17.1
13,CCOC(=O)c1cn(CC)c2ccc(S(=O)(=O)N3CCC(C)CC3)cc2c1=O,-26.8
14,N=C(N)N1CCN(Cc2ccccc2)CC1.O=S(=O)(O)O,14.5
15,CCOCCSC1=C(C#N)C(c2cccs2)C(C(C)=O)=C(C)N1 (centres unmarked),-13.5
16,COc1ccc(CNC(=O)COC(=O)c2nc3nc(C)cc(C)n3n2)cc1,-1.29
17,Cc1cc(N/N=C/c2ccc(Cl)cc2Cl)nc(NCc2ccccc2)n1,12.9
18,O=C(CNC(=O)c1ccc(Cl)cc1)OCc1nc2ccccc2s1,17.3
19,COc1ccccc1NC(=O)CN(c1ccccc1F)S(C)(=O)=O,-0.409
20,CCOC(=O)c1cc(CC)sc1NC(=O)C(c1ccccc1)c1ccccc1,10

# From PMC4336329 (PLoS ONE, 2015)
